In PubChem BioAssay AID493208 (National Center for Advancing Translational Sciences (NCATS), 2011):
The whole screen tested about 44,000 compounds, of which about 340 (0.77%) were called active. Another 5% or so got no clear call; they are omitted. Calls come from the whole dose curve; as a rule, active = well fitted inhibition curve with a large enough effect; inconclusive = small, poorly fitted or top-dose-only effect; inactive = flat fitted curve, though single readings scatter. The list shows a part of the results.

experiment: Acumen qHTS Assay for Inhibitors of the mTORC1 Signaling Pathway in MEF (Tsc2-/-, p53-/-) Cells: Sytravon; settings: phospho-rpS6 immunofluorescence/PI, 24 h; series mostly up to 38.3 µM; activity change, negative = inhibition: at the top concentration;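 note: plate controls were DMSO for no effect and rapamycin for full effect; nearly all actives have a fitted effect of over 50% in size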
Procedure, shortened: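 Tsc2-/-, p53-/- MEFs (empty-vector stable line) in DMEM + 10% FBS were treated with compounds 24 h at 37 degree Celsius, fixed, and immunostained for phospho-rpS6 (Alexa-488) with propidium iodide counterstain. Laser-scanning cytometry gave % positive cells, normalized against 7.5 nM rapamycin and DMSO.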

Activity change, negative = inhibition, inactive:
CCc1ccccc1NC(=O)c1oc(=O)c2ccccc2c1-c1ccccc1 -2.56%
CCCCOc1cccc(C(=O)Nc2sc3c(c2C(=O)OCC)CCCC3)c1 1.99%
Cc1ccc2nc3c(cc(C#N)c(=O)n3-c3nnc(SCc4ccc(F)cc4)s3)c(=O)n2c1 0.761%
COc1cccc(NC(=O)CSc2nc(=O)n(Cc3cccnc3)c3c2CCC3)c1 -2.84%
CCOc1ccccc1NC(=O)Cn1c(=O)n(CC(=O)NCc2ccccc2Cl)c(=O)c2sccc21 -3.49%
COc1ccc(OCC(=O)Nc2ccc(-c3nc4cc(Cl)ccc4o3)cc2)cc1 7.17%
COc1ccc(CCNC(=O)CCCCn2c(=O)c3ccccc3n(Cc3cc(C)ccc3C)c2=O)cc1OC -14.6%
CCCN(CCC)C(=O)Cn1c(=O)n(-c2ccc(OC)cc2OC)c(=O)c2c3c(sc21)CCC3 1.39%
CCOc1ccc(CNC(=O)c2ccc3c(c2)c(C)c(C)n3C)cc1 5.07%
CCCn1c2ccccc2c2cnn(CC(=O)NCC3CCN(Cc4ccc(C)cc4)CC3)c(=O)c21 -3.8%
CCOc1ccc(-n2c(SCc3ccccc3)nc3c([nH]c4ccccc43)c2=O)cc1 -5.13%
Cc1ccc(NC(=O)Nc2nnc(SCC(=O)N3CCCCC3)s2)cc1 0.848%
COc1ccc(Nc2cc(C)c3cc(NC(=O)c4ccccc4Cl)ccc3n2)cc1 -7.55%
COc1cccc(N2CC(NC(=O)c3cc4ccccc4o3)CC2=O)c1 (stereo not given) 1.54%
Fc1ccc(-c2noc3ncnc(NCCc4ccc(Cl)cc4)c23)cc1 -2.8%
CC(C)c1ccc2c(c1)NC(c1ccc(F)cc1)=NC(c1cccs1)=N2 -3.89%
Cc1nc2ncnn2c(C)c1CCC(=O)N1CCN(c2ccc(F)cc2)CC1 0.835%
COc1cccc(CNC(=O)N2CCc3c(sc4c3CCCC4)C2c2ccc(F)cc2)c1 (stereo not given) 8.81%
Cc1cccc(C(=O)NCCc2nc3ccccc3n2Cc2ccccc2Cl)c1 -3.36%
Cc1cc(Nc2cccc(C(F)(F)F)c2)nc2ccc(NC(=O)Cc3ccc(Cl)cc3)cc12 -22.9%
CCOC(=O)CCc1c(C)nc2c(-c3ccccc3)c(C)[nH]n2c1=O 2.43%
CCOc1ccccc1CNC(=O)CSc1n[nH]c(-c2ccccc2)n1 -12%
O=C(CSc1nnc(-c2ccncc2)n1-c1ccccc1)Nc1ccc(F)cc1 -8.78%
CC(C)c1noc(-c2ccccc2OCC(=O)Nc2ccc([N+](=O)[O-])cc2)n1 -0.384%
Cc1cc(=O)n(Cc2cccc(Cl)c2)c2c1c(C)nn2C -14.4%
COc1ccc(OC)c(C2C(C(=O)Nc3ccc(C)cc3C)=C(C)Nc3c(C(=O)Nc4ccc(F)cc4)cnn32)c1 (stereo not given) 8.87%
CCn1c2c(c(=O)n3ncc(C(=O)N4CCN(c5ccccc5)CC4)c13)CN(Cc1ccc(OC)cc1)CC2 -0.138%
COc1ccc(Cl)cc1NC(=O)CSc1nc(=O)n(Cc2ccco2)c2c1CCC2 -9.73%
CCOC(=O)c1ccccc1NC(=O)c1cn(CC(C)C)c(=O)c2cc(OC)c(OC)cc12 -16.4%
COc1ccc(OC)c(-c2noc(CSc3nnc(-c4ccccc4)n3-c3ccccc3)n2)c1 1.7%
Cc1ccc(-n2ncc3c(Nc4ccc(Oc5ccccc5)cc4)ncnc32)c(C)c1 1.33%
COc1ccc(N2CCN(S(=O)(=O)c3ccc(C4CCCCC4)cc3)CC2)cc1 -0.846%
Cc1ccc(OCC(=O)Nc2nnc(S(=O)(=O)N3CCc4ccccc43)s2)cc1 7.26%
COc1ccc(Cn2c(C(=O)O)c(CNCc3ccc(OC)cc3OC)c3ccc(C)cc32)cc1 -13.5%
COc1ccc(NC(=O)CSCc2cc(=O)c3cc(C)ccc3[nH]2)cc1 3.29%
Fc1ccc(CNCCCSc2nnnn2-c2ccccc2)cc1 -2.06%
COc1ccc(CCCc2nnc(SCC(=O)Nc3cc(F)ccc3C)o2)cc1 -5.8%
CCOc1ccc(CNC(=O)c2ccc3c(Cl)c4c(nc3c2)CCCC4)cc1 -1.53%
CN(C(=O)CSc1nc2ccc(NC(=O)c3cccc(F)c3)cc2s1)c1ccccc1 -11.8%
COc1cc(Cl)c(C)cc1NC(=O)CC1Oc2ccccc2NC1=O (stereo not given) -0.548%
COc1ccc(C(=O)Nc2ccc(-c3nc4ncccc4o3)cc2C)cc1Br -2.43%
CCn1c(=O)c2cc(C(=O)Nc3cccc(C(F)(F)F)c3)sc2c2ccccc21 -14.9%
CCNC(=O)CCCN1C(=O)CCn2nc(-c3cccn3C)cc21 -0.31%
CCC(Sc1nc2nccnc2c(=O)n1Cc1ccccc1Cl)C(=O)NC1CCCCC1 (stereo not given) 9.67%
O=S(=O)(c1ccc(C2CCCCC2)cc1)N1CCN(c2cc(Cl)ccc2Cl)CC1 0.236%
COc1ccc(-n2c(/C=C/c3cccc4ccccc34)nc3ccccc3c2=O)cc1OC 2.61%
Cc1ccc(CNC(=O)CSCc2ccccc2C)cc1 11%
Cc1ccc2nc(NCc3ccccc3)c3nncn3c2c1 -3.59%
CCn1cc(C(=O)NCCc2ccc(Cl)cc2)c(=O)c2cc(S(=O)(=O)N(C)C3CCCCC3)ccc21 0.6%
Cc1cccc(N(CC(=O)NCCc2ccccc2)S(=O)(=O)c2ccccc2)c1C -25.8%
COc1ccc(CCNC(=O)c2cc3c(=O)n4cccc(C)c4nc3n2C)cc1 -0.369%
Cc1ccc(-c2csc(-c3c(N)c(C(=O)c4ccc5c(c4)OCO5)n4ccccc34)n2)cc1C 0.128%
Cc1cccc(CSCCNC(=O)C2CCN(S(=O)(=O)Cc3ccccc3)CC2)c1 4.44%
COc1ccc2c(C)c(CCC(=O)NCc3cccc(Cl)c3)c(=O)oc2c1 0.309%
CCC(CC)C(=O)Nc1nnc(S(=O)(=O)N(C)c2cc(C)cc(C)c2)s1 3.64%
Cc1cc(C)cc(-n2ccn(CC(=O)NCCc3ccccc3)c(=O)c2=O)c1 4.6%
COc1cc2c(cc1OC)C(COc1ccc3c(C)cc(=O)oc3c1)N(C(=O)Cc1ccc(F)cc1)CC2 (stereo not given) 6.62%
CCOC(=O)c1c(NC(C)=O)c2c3c(sc2n1Cc1c(C)cc(C)cc1C)CCCC3 -10%
CCOc1ccc(N(CC(=O)NCc2ccc(OC)cc2)S(=O)(=O)c2c(C)[nH]c(=O)[nH]c2=O)cc1 -6.2%
COc1cccc(C(=O)N(Cc2cccc(F)c2)C2CCS(=O)(=O)C2)c1 (stereo not given) 3.08%
COc1ccc(Cn2ccnc2SCC(=O)Nc2ccc3c(c2)OCCO3)cc1 2.73%
Cc1ccc2c(c1)N(CC(=O)Nc1ccccc1C(F)(F)F)C(=O)c1cccnc1O2 -0.948%
Cc1c(Cl)cccc1NC(=O)c1oc2ccc(S(=O)(=O)N3CCCCCC3)cc2c1C 11.4%
CCOC(=O)c1cc2c(=O)n3ccccc3nc2n(Cc2ccco2)c1=NC(=O)c1ccc(C(C)(C)C)cc1 16.4%
COc1cccc(OC)c1C(=O)Nc1ccc(-c2nc3ncccc3o2)cc1 -0.45%
O=C(Nc1cccc(F)c1)c1ccc2oc(=O)n(Cc3ccccc3)c2c1 9.79%
O=C(Cn1c(=O)n(-c2ccccc2)c(=O)c2c3c(sc21)CCC3)c1ccc(F)cc1 -10.4%
O=C(NCc1ccccc1)c1ccc2c(c1)N(Cc1ccccc1F)C(=O)c1ccccc1S2=O (stereo not given) 4.16%
Cc1ccc(Sc2ccc(N3CCC(C(=O)Nc4cc(C)cc(C)c4)CC3)nn2)cc1 -3.91%
Cc1ccc(C2CC(=O)n3nc(-c4ccc(Cl)cc4)nc3S2)cc1 (stereo not given) 7.5%
CCc1ccc(NC(=O)CSc2nc3c([nH]c4ccccc43)c(=O)n2-c2ccc(C)cc2)cc1 -10.7%
Cc1ccc(CNC(=O)CCS(=O)(=O)c2cc3c4c(c2)CCN4C(=O)CC3)cc1 0.311%
CCOC(=O)c1scc(-c2ccccc2)c1S(=O)(=O)N1CCN(c2ccc(Cl)cc2)CC1 -14.9%
Cc1ccc(NC(=O)c2ccc(NC(=O)N3CCSc4ncccc43)cc2)c(Cl)c1 -1.27%
COc1cccc(N2CCN(C(=O)c3cnc4c(-c5ccccc5)c(C)nn4c3C)CC2)c1 1.89%
COc1ccccc1C(=O)Nc1c(C(=O)Nc2cc(Cl)ccc2C)sc2nc(C)cc(C)c12 6.35%
COc1cccc(CN2C(=O)c3ccccc3Sc3ccc(C(=O)NCc4ccccc4)cc32)c1 -8.85%
O=C(Nc1ccccc1)c1cnc(N2CCCCC2)c2ccccc12 0.7%
COc1ccc(-c2cc(C)no2)cc1S(=O)(=O)N1CCN(c2cccc(C)c2)C(C)C1 (stereo not given) -9.19%
Cc1ccccc1NC(=O)NCCc1c[nH]c2ccccc12 1.87%
COc1cccc2cc(C(=O)N3CCN(c4cc(C)ccc4C)CC3)c(=O)oc12 8.46%
Fc1ccccc1Nc1c2c(nc3ccccc13)CCC2 3.11%
Cc1nc(SCC(=O)N2CCN(c3ccccc3)CC2)[nH]c(=O)c1C -2.25%
CCc1ccccc1NC(=O)CN(C)S(=O)(=O)c1cccc2nsnc12 0.148%
COc1ccc(-c2ccc(NS(=O)(=O)c3ccc(NC(C)=O)cc3)cc2)nn1 -2.88%
CCN(CC)c1ccc(NC(=O)c2c(C)nn(-c3ccc(F)cc3)c2-n2cccc2)c(C)c1 -10.2%
COc1ccc(OC)c(NC(=O)c2c(NCc3cccs3)sc3c2CCCCC3)c1 -0.786%
COc1ccc(-c2noc(N3CCC(C(=O)Nc4cccc(C)c4C)CC3)n2)cc1 -3.41%
CCc1ccc(NC(=O)CSc2nc3nc(C)cc(C)n3n2)cc1 -11.5%
COc1ccc(CCNC(=O)c2ccc3c(c2)CCN3S(=O)(=O)c2ccccc2)cc1 -4.46%
CCOc1cc(CNC(=O)c2cc(-c3ccccc3)n[nH]2)cc(OCC)c1OCC -8.28%
O=C(CN1C(=O)C2(SCC(=O)N2c2ccc(F)c(F)c2)c2ccccc21)NCCc1ccccc1 (stereo not given) -7.07%
COc1ccc(NC(=O)c2oc3ccc(S(=O)(=O)N4CCOCC4)cc3c2C)c(OC)c1 -9.76%
COc1ccc(CCNC(=O)c2cnn(-c3ccc(F)cc3)c2C2CCN(C(=O)OC(C)(C)C)CC2)cc1OC 0.833%
COc1ccc(N2CCN(C(=O)c3cc4c(=O)n(Cc5cccnc5)ccc4nc3C)CC2)cc1 10.9%
